Assay results as given in US20260297081A1, “COMPOUNDS AND METHODS OF TREATING CANCERS” (Cullgen Inc., priority 2023, published 2026).
The name of at least one read-out is uncertain.

System: CyclinD1 (CCND1)
Test: Cyclin D1 (CCND1) percentage degradation in Calu-1 cells (Table 6)
Type: cell-based
Conditions: 16 hours

Row | Compound | CyclinD1 Degradation (40 nM) | CyclinD1 Degradation (200 nM)
1 | CNc1ccc(C(=O)Nc2ccc(N(C)C)nn2)c(NC2CC3(C2)CN(C(=O)CC(C)N2CCN(c4ccc(Nc5ncc6c(C)c(C(C)=O)c(=O)n(C7CCCC7)c6n5)nc4)CC2)C3)n1 (stereo not drawn) [CPD-224, 2-((2-(3-(4-(6-((6-acetyl-8-cyclopentyl-5-methyl-7-oxo-7,8-dihydropyrido[2,3-d]pyrimidin-2-yl)amino)pyridin-3-yl)piperazin-1-yl)butanoyl)-2-azaspiro[3.3]heptan-6-yl)amino)-N-(6-(dimethylamino)pyridazin-3-yl)-6-(methylamino)nicotinamide] | B (50%< degradation activity <80%) | B (50%< degradation activity <80%)
2 | [2H]C([2H])([2H])Nc1ccc(C(=O)Nc2cc(C)on2)c(NC2CC3(CC(NC(=O)CN4CCN(c5ccc(Nc6ncc7c(C)c(C(C)=O)c(=O)n(C8CCCC8)c7n6)nc5)CC4)C3)C2)n1 (stereo not drawn) [CPD-225, 2-((6-(2-(4-(6-((6-acetyl-8-cyclopentyl-5-methyl-7-oxo-7,8-dihydropyrido[2,3-d]pyrimidin-2-yl)amino)pyridin-3-yl)piperazin-1-yl)acetamido)spiro[3.3]heptan-2-yl)amino)-6-((methyl-d3)amino)-N-(5-methylisoxazol-3-yl)nicotinamide] | A (degradation activity >80%) | A (degradation activity >80%)
3 | [2H]C([2H])([2H])Nc1ccc(C(=O)Nc2cccc(C)n2)c(NC2CC3(C2)CC(OC(C)(C)C(=O)N2CCN(c4ccc(Nc5ncc6c(C)c(C(C)=O)c(=O)n(C7CCCC7)c6n5)nc4)CC2)C3)n1 (stereo not drawn) [CPD-226, 2-((6-((1-(4-(6-((6-acetyl-8-cyclopentyl-5-methyl-7-oxo-7,8-dihydropyrido[2,3-d]pyrimidin-2-yl)amino)pyridin-3-yl)piperazin-1-yl)-2-methyl-1-oxopropan-2-yl)oxy)spiro[3.3]heptan-2-yl)amino)-6-((methyl-d3)amino)-N-(6-methylpyridin-2-yl)nicotinamide] | D (degradation activity <30%) | A (degradation activity >80%)
4 | CNc1ccc(C(=O)Nc2cc(C(C)C)on2)c(NC2CC3(CC(NC(=O)CN4CCN(c5ccc(Nc6ncc7c(C)c(C(C)=O)c(=O)n(C8CCCC8)c7n6)nc5)CC4)C3)C2)n1 (stereo not drawn) [CPD-227, 2-((6-(2-(4-(6-((6-acetyl-8-cyclopentyl-5-methyl-7-oxo-7,8-dihydropyrido[2,3-d]pyrimidin-2-yl)amino)pyridin-3-yl)piperazin-1-yl)acetamido)spiro[3.3]heptan-2-yl)amino)-N-(5-isopropylisoxazol-3-yl)-6-(methylamino)nicotinamide] | D (degradation activity <30%) | D (degradation activity <30%)
5 | CNc1ccc(C(=O)Nc2cc(C)n(C)n2)c(NC2CCN(C(=O)CN3CCN(c4ccc(Nc5ncc6c(C)c(C(C)=O)c(=O)n(C7CCCC7)c6n5)nc4)CC3)CC2)n1 [CPD-228, 2-((1-(2-(4-(6-((6-acetyl-8-cyclopentyl-5-methyl-7-oxo-7,8-dihydropyrido[2,3-d]pyrimidin-2-yl)amino)pyridin-3-yl)piperazin-1-yl)acetyl)piperidin-4-yl)amino)-N-(1,5-dimethyl-1H-pyrazol-3-yl)-6-(methylamino)nicotinamide] | D (degradation activity <30%) | A (degradation activity >80%)
6 | CNc1ccc(C(=O)Nc2cc(C)on2)c(NC2CCN(C(=O)CN3CCN(c4ccc(Nc5ncc6c(C)c(C(C)=O)c(=O)n(C7CCCC7)c6n5)nc4)CC3)CC2)n1 [CPD-229, 2-((1-(2-(4-(6-((6-acetyl-8-cyclopentyl-5-methyl-7-oxo-7,8-dihydropyrido[2,3-d]pyrimidin-2-yl)amino)pyridin-3-yl)piperazin-1-yl)acetyl)piperidin-4-yl)amino)-6-(methylamino)-N-(5-methylisoxazol-3-yl)nicotinamide] | C (30%< degradation activity <50%) | A (degradation activity >80%)
7 | [2H]C([2H])([2H])Nc1ccc(C(=O)Nc2cc(C)n(C)n2)c(NC2CCN(C(=O)CN3CCN(c4ccc(Nc5ncc6c(C)c(C(C)=O)c(=O)n(C7CCCC7)c6n5)nc4)CC3)CC2)n1 [CPD-230, 2-((1-(2-(4-(6-((6-acetyl-8-cyclopentyl-5-methyl-7-oxo-7,8-dihydropyrido[2,3-d]pyrimidin-2-yl)amino)pyridin-3-yl)piperazin-1-yl)acetyl)piperidin-4-yl)amino)-N-(1,5-dimethyl-1H-pyrazol-3-yl)-6-((methyl-d3)amino)nicotinamide] | D (degradation activity <30%) | A (degradation activity >80%)
8 | [2H]C([2H])([2H])Nc1ccc(C(=O)Nc2cc(C)on2)c(NC2CCN(C(=O)CN3CCN(c4ccc(Nc5ncc6c(C)c(C(C)=O)c(=O)n(C7CCCC7)c6n5)nc4)CC3)CC2)n1 [CPD-231, 2-((1-(2-(4-(6-((6-acetyl-8-cyclopentyl-5-methyl-7-oxo-7,8-dihydropyrido[2,3-d]pyrimidin-2-yl)amino)pyridin-3-yl)piperazin-1-yl)acetyl)piperidin-4-yl)amino)-6-((methyl-d3)amino)-N-(5-methylisoxazol-3-yl)nicotinamide] | B (50%< degradation activity <80%) | A (degradation activity >80%)
9 | [2H]C([2H])([2H])Nc1ccc(C(=O)Nc2cccc(C)n2)c(NC2CC3(CC(NC(=O)CN4CCN(c5ccc(Nc6ncc7c(C)c(C(C)=O)c(=O)n(C8CCCC8)c7n6)nc5)CC4)C3)C2)n1 (stereo not drawn) [CPD-232, 2-((6-(2-(4-(6-((6-acetyl-8-cyclopentyl-5-methyl-7-oxo-7,8-dihydropyrido[2,3-d]pyrimidin-2-yl)amino)pyridin-3-yl)piperazin-1-yl)acetamido)spiro[3.3]heptan-2-yl)amino)-6-((methyl-d3)amino)-N-(6-methylpyridin-2-yl)nicotinamide] | A (degradation activity >80%) | A (degradation activity >80%)
10 | [2H]C([2H])([2H])Nc1ccc(C(=O)Nc2cc(C)n(C)n2)c(NC2CN(C(=O)C(F)(F)CN3CCN(c4ccc(Nc5ncc6c(C)c(C(C)=O)c(=O)n(C7CCCC7)c6n5)nc4)CC3)C2)n1 [CPD-233, 2-((1-(3-(4-(6-((6-acetyl-8-cyclopentyl-5-methyl-7-oxo-7,8-dihydropyrido[2,3-d]pyrimidin-2-yl)amino)pyridin-3-yl)piperazin-1-yl)-2,2-difluoropropanoyl)azetidin-3-yl)amino)-N-(1,5-dimethyl-1H-pyrazol-3-yl)-6-((methyl-d3)amino)nicotinamide] | D (degradation activity <30%) | A (degradation activity >80%)
11 | [2H]C([2H])([2H])Nc1ccc(C(=O)Nc2cc(C)on2)c(NC2CN(C(=O)C(F)(F)CN3CCN(c4ccc(Nc5ncc6c(C)c(C(C)=O)c(=O)n(C7CCCC7)c6n5)nc4)CC3)C2)n1 [CPD-234, 2-((1-(3-(4-(6-((6-acetyl-8-cyclopentyl-5-methyl-7-oxo-7,8-dihydropyrido[2,3-d]pyrimidin-2-yl)amino)pyridin-3-yl)piperazin-1-yl)-2,2-difluoropropanoyl)azetidin-3-yl)amino)-6-((methyl-d3)amino)-N-(5-methylisoxazol-3methyl-yl)nicotinamide] | D (degradation activity <30%) | D (degradation activity <30%)
12 | CNc1ccc(C(=O)Nc2ccc(N(C)C)nn2)c(NC2CCC3(C2)CN(C(=O)CN2CCN(c4ccc(Nc5ncc6c(C)c(C(C)=O)c(=O)n(C7CCCC7)c6n5)nc4)CC2)C3)n1 (stereo not drawn) [CPD-235, 2-((2-(2-(4-(6-((6-acetyl-8-cyclopentyl-5-methyl-7-oxo-7,8-dihydropyrido[2,3-d]pyrimidin-2-yl)amino)pyridin-3-yl)piperazin-1-yl)acetyl)-2-azaspiro[3.4]octan-6-yl)amino)-N-(6-(dimethylamino)pyridazin-3-yl)-6-(methylamino)nicotinamide] | A (degradation activity >80%) | A (degradation activity >80%)
13 | [2H]C([2H])([2H])Nc1ccc(C(=O)Nc2cn(C)c(C3CC3)n2)c(NC2CCN(C(=O)CN3CCN(c4ccc(Nc5ncc6c(C)c(C(C)=O)c(=O)n(C7CCCC7)c6n5)nc4)CC3)CC2)n1 [CPD-236, 2-((1-(2-(4-(6-((6-acetyl-8-cyclopentyl-5-methyl-7-oxo-7,8-dihydropyrido[2,3-d]pyrimidin-2-yl)amino)pyridin-3-yl)piperazin-1-yl)acetyl)piperidin-4-yl)amino)-N-(2-cyclopropyl-1-methyl-1H-imidazol-4-yl)-6-((methyl-d3)amino)nicotinamide] | A (degradation activity >80%) | A (degradation activity >80%)
14 | [2H]C([2H])([2H])Nc1ccc(C(=O)Nc2cn(C)c(C3CC3)n2)c(NC2CC3(CC(NC(=O)CN4CCN(c5ccc(Nc6ncc7c(C)c(C(C)=O)c(=O)n(C8CCCC8)c7n6)nc5)CC4)C3)C2)n1 (stereo not drawn) [CPD-237, 2-((6-(2-(4-(6-((6-acetyl-8-cyclopentyl-5-methyl-7-oxo-7,8-dihydropyrido[2,3-d]pyrimidin-2-yl)amino)pyridin-3-yl)piperazin-1-yl)acetamido)spiro[3.3]heptan-2-yl)amino)-N-(2-cyclopropyl-1-methyl-1H-imidazol-4-yl)-6-((methyl-d3)amino)nicotinamide] | A (degradation activity >80%) | A (degradation activity >80%)
15 | [2H]C([2H])([2H])Nc1ccc(C(=O)Nc2ccc(F)c(C3CC3)n2)c(NC2CC3(CC(NC(=O)CN4CCN(c5ccc(Nc6ncc7c(C)c(C(C)=O)c(=O)n(C8CCCC8)c7n6)nc5)CC4)C3)C2)n1 (stereo not drawn) [CPD-239, 2-((6-(2-(4-(6-((6-acetyl-8-cyclopentyl-5-methyl-7-oxo-7,8-dihydropyrido[2,3-d]pyrimidin-2-yl)amino)pyridin-3-yl)piperazin-1-yl)acetamido)spiro[3.3]heptan-2-yl)amino)-N-(6-cyclopropyl-5-fluoropyridin-2-yl)-6-((methyl-da)amino)nicotinamide] | A (degradation activity >80%) | A (degradation activity >80%)
